Out of some 150,000 compounds screened, about 540 (0.36%) showed an effect of 50% or more. This is one part of the list.

This test relates to Plasmodium falciparum. The experiment in a line: Primary screen in NF54 nanoGlo assay, in single point, at 2uM, 72h; a lower Z score goes with more inhibition. To be noted: timepoint 72 hour. The format is functional, Erythrocyte.
Consider `CN1C(=O)C[C@H](CNC(=O)c2ccc(O)c(Cl)c2)c2ccccc21`, for which the % Inhibition – broadly, the drop in the measured response relative to a control, in per cent – was -6% and the Z score was determined as 1.01.
With `CC(C)C(=O)N(CCN1CCOCC1)Cc1c(-c2ccccc2)noc1N1CCCC1`, the “% Inhibition” value is reported as 17% and the Z score is -1.64.
Take `Cc1c(Cl)cccc1-n1ncc(C(=O)N2CCN(c3ccc(F)cc3)CC2)c1C1CCN(C(=O)OC(C)(C)C)CC1`: the “% Inhibition” value came out at 4% and the Z score is on record as -0.39.
In the same order, the values of `CC(=O)c1c(-c2ccccc2OCc2cccc(F)c2)cnn1C` are -8% and 1.42.
In the same order, the values of `COCc1ncc(C)n1CC1CN(C(=O)c2ccoc2)C1` are 5% and -0.88.
On to `O=C(NCCn1nc(-c2ccncc2)c2c1CCCC2)c1ccccc1Cl`, for which the “% Inhibition” value was -14% and the Z score turned out to be 1.85.
Turning to `CCc1ccc(C(=O)N(C)C[C@@H]2CC(F)(F)CN2C2CN(C)C2)cc1`, the “% Inhibition” value is recorded as -13% and the Z score turned out to be 1.57.
With `COc1ccccc1N1CCN(C(=O)C2CCC(Cn3cnnn3)CC2)CC1` (stereo unspecified), the “% Inhibition” value stood at 0% and the Z score worked out at 0.04.
Turning to `O=C1NCCN1C1CN(Cc2ccn(-c3c(F)cccc3F)n2)C1`, the “% Inhibition” value is reported as -6% and the Z score stood at 0.55.
Turning to `FC(F)(F)C(CC1CCCO1)Nc1nc(C2CCC2)no1` (stereo unspecified), the “% Inhibition” value is -17% and the Z score was 2.24.
As to `CN1CCc2c(CNC(=O)C3CCC3)c3c(c(O)c2C1=O)OCO3`, the “% Inhibition” value is recorded as -11% and the Z score came out at 1.44.
Consider `O=C(c1cncc(Br)c1)N1C2C=CCC1CC2` (stereo unspecified), for which the “% Inhibition” value was -10% and the Z score was found to be 1.74.
For `CCc1nc(CNc2nc(C)cnc2C)cs1` the same measures were -13% and 1.61.
In the same order, the values of `CCCc1cnc(C)nc1-c1ccc(C(=O)NCc2nncn2C(C)C)cc1` are 1% and -0.18.
In the same order, the values of `COc1ccc(CN(Cc2ccco2)C(=O)c2cccc(F)c2)cc1OS(=O)(=O)c1ccc(F)cc1` are -33% and 2.87.
Take `COc1ccc(CCN2CCCN(c3ccc(C(F)(F)F)cn3)CC2)cc1`: the “% Inhibition” value is -14% and the Z score came out at 1.52.
Consider `COC(C)c1nc(C)c(C(=O)NC2(C)CCCc3ccccc32)s1` (stereo unspecified), for which the “% Inhibition” value is -2% and the Z score came to 0.29.
For `O=C(NCCCOCC1CCCO1)N1CCOC(c2ccc(F)c(F)c2)C1` (stereo unspecified) the same measures were -12% and 1.39.
For `Cc1ccc(NC(=O)c2ccc3c(c2)nnn3Cc2ccccc2)cc1C` the same measures were 13% and -1.27.
Consider `COc1ccccc1C(=O)N[C@@H]1c2ccccc2C2(CCNCC2)[C@H]1OC`, for which the “% Inhibition” value is reported as 2% and the Z score is given as -0.32.
For `Cn1cc(C2CN(C(=O)[C@H]3C[C@@H]3c3ccccc3Cl)CCN2)cn1` (stereo partly specified) the same measures were 6% and -0.87.
As to `Cc1ncc2c(c1-c1noc(Cn3cc4ccccc4n3)n1)CCNC2`, the “% Inhibition” value was 6% and the Z score was -1.12.
As to `O=C(c1ccc(C(F)(F)F)nc1)N1C2CCC1CC(n1ccnc1)C2` (stereo unspecified), the “% Inhibition” value is -8% and the Z score is listed as 1.08.
Consider `CC(C)c1nc(CN2C(=O)c3ccccc3C2=O)n(-c2ccccn2)n1`, for which the “% Inhibition” value is reported as -7% and the Z score worked out at 0.87.
Take `CCCN(CC1CCCCO1)C(=O)NC(C)c1cn(C)nc1C` (stereo unspecified): the “% Inhibition” value was -9% and the Z score amounted to 1.46.
With `CC(C)CCNC(=O)C(=Cc1ccc(Cl)c(Cl)c1)C(=O)NCCC(C)C`, the “% Inhibition” value is recorded as 34% and the Z score was -3.8.
On to `O=S(=O)(Nc1ccccc1-c1nnc2n1CCCCC2)c1ccc(Cl)cc1`, for which the “% Inhibition” value is recorded as 5% and the Z score was -0.77.
For `c1cc2cc(CN3C[C@@H]4CC[C@H]3CN(Cc3cscn3)C4)ccc2[nH]1` the same measures were -1% and 0.16.
For the compound `Cc1cc(S(=O)(=O)NCCOCC(N)=O)sc1Cl`, the “% Inhibition” value is 2% and the Z score is -0.34.
Turning to `Cc1ccc(CNC(=O)c2cc(N3CCNC3=O)c(F)cc2F)n1C`, the “% Inhibition” value is given as -11% and the Z score is 2.15.
In the case of `COCC1(C(=O)NCCc2cn(C)c3cc(F)ccc23)CCOCC1`, the “% Inhibition” value was -6% and the Z score was determined as 0.8.
In the same order, the values of `Cc1ccc(-n2nc(C)c3sc(N4CCC(NC(=O)c5ccccc5C)CC4)nc32)cc1` are -7% and 0.86.
For the compound `CCCNC(=O)CCNC(=O)N1CC[C@]2(CCOC2)C1`, the “% Inhibition” value is reported as -2% and the Z score is listed as 0.32.
`CCCC(NC(C)c1cnccn1)c1cccc(C(F)(F)F)c1` (stereo unspecified): the “% Inhibition” value is on record as -7% and the Z score turned out to be 0.82.
In the same order, the values of `CCOc1cncc(CN2CCC3(CCc4ccccc4C3=O)CC2)c1` are -5% and 0.83.
As to `COc1ncnc(N(C)C)c1NC(=O)c1ccc(Cl)cn1`, the “% Inhibition” value is given as -14% and the Z score was 1.69.
In the case of `Cc1cc(N)n(CC(=O)NCCN(C)CCc2ccccc2)n1`, the “% Inhibition” value was found to be 0% and the Z score is given as 0.05.
For `CCOc1ncccc1NC(=O)Cc1c(C)nn(C)c1C` the same measures were -10% and 1.79.
For `c1csc(CCN2CCc3cncnc3C2)c1` the same measures were -19% and 3.39.
For `Cc1cc(CN(C)C(=O)CN2CCCCCC2)on1` the same measures were -13% and 1.25.
Consider `CN(C)c1ccccc1NC(=O)C1=Cc2ccccc2OC1`, for which the “% Inhibition” value was -13% and the Z score stood at 2.5.
On to `COc1cccc(-c2ccc(N3CCN(C(=O)CN(Cc4ccccc4)C(=O)c4ccc(F)cc4)CC3)nn2)c1`, for which the “% Inhibition” value worked out at 7% and the Z score is -1.24.
Regarding `CC1c2ccc(F)cc2CCN1C(=O)c1cnc(C2CCCO2)s1` (stereo unspecified), the “% Inhibition” value came to 6% and the Z score is -0.61.

For the origin of these results see ChEMBL document CHEMBL4888484, “Replenishing the malaria drug discovery pipeline: Screening and hit evaluation of the MMV Hit Generation Library 1 (HGL1) against asexual blood stage Plasmodium falciparum ,using a nano luciferase reporter read-out” (2022).
